In the supplement of paper PMC10037445:
Where “and” joins values, the source holds several entries; their conditions need not be identical. Identical values can stand only once. ± gives the standard deviation of the averaged measurements. In all, about 2,900 compounds were measured (“IRF Lucia reporter activity, fold change vs agonist alone”: median about 0.9, highest 2% from about 2.8 on). This is one part of the list.

Experiments:
RAW-Dual [1] = assay: IRF Lucia reporter activity, fold change vs agonist alone; cytotoxicity flag (confluency mask): not cytotoxic; higher = enhanced IRF activity
Procedure, shortened: (§1)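 Cytotoxic wells were those whose IncuCyte confluency was below 70% of agonist controls in both mask sets. The cells were RAW-Dual macrophages at 50,000 cells/well in DMEM on 384-well plates, dosed with 50 nL of library stock by pin tool, stimulated with a PRR agonist 1 h later, and kept at 37 °C, 5% CO2 for 20 hours. IRF and NF-κB reporter activity, as fold change over agonist-alone wells, came from supernatant read by QuantiLuc luminescence and QuantiBlue absorbance, respectively.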

RAW-Dual [2] = assay: IRF Lucia reporter activity, fold change vs agonist alone; higher = enhanced IRF activity; conditions: agonist: MPLA (TLR4) […]
Procedure, shortened: as §1

RAW-Dual [3] = assay: IRF Lucia reporter activity, fold change vs agonist alone; cytotoxicity flag (confluency mask): cytotoxic (confluency <70% of control); higher = enhanced IRF activity
Procedure, shortened: as §1

[4] = agonist: 3'3'-cGAMP (STING) 10 ug/mL
[5] = library stock concentration (final ~1000-fold dilution): 10 mM, cytotoxicity flag (confluency mask): not cytotoxic
[6] = library stock concentration (final ~1000-fold dilution): 10 mM, cytotoxicity flag (confluency mask): cytotoxic (confluency <70% of control)

## C=C1CCC(O)C/C1=C/C=C1\CCCC2(C)C1CCC2C(C)/C=C/C(C)C(C)C (stereo not given) (library stock concentration (final ~1000-fold dilution): 10 mM)
RAW-Dual [1]; [4]
  IRF Lucia reporter activity: 0.434
RAW-Dual [1]; agonist: LPS (TLR4) 0.1 ug/mL
  IRF Lucia reporter activity: 1.25

## C=C1CCC(O)C/C1=C/C=C1\CCCC2(C)C1CCC2C(C)/C=C/C(C)C(C)C (stereo not given)
RAW-Dual [2]; [5]
  IRF Lucia reporter activity: 1.09

## Cn1sc(=O)n(Cc2ccccc2)c1=O
RAW-Dual [2]; [6]
  IRF Lucia reporter activity: 0.292

## Cn1sc(=O)n(Cc2ccccc2)c1=O (library stock concentration (final ~1000-fold dilution): 10 mM)
RAW-Dual [3]; [4]
  IRF Lucia reporter activity: 0.328
RAW-Dual [3]; agonist: LPS (TLR4) 0.1 ug/mL
  IRF Lucia reporter activity: 0.137

## CC(Nc1ncnc2[nH]cnc12)c1cc2ccc(F)cc2nc1-c1ccccn1 (stereo not given) (library stock concentration (final ~1000-fold dilution): 10 mM)
RAW-Dual [1]; [4]
  IRF Lucia reporter activity: 0.716
RAW-Dual [1]; agonist: LPS (TLR4) 0.1 ug/mL
  IRF Lucia reporter activity: 0.768

## CC(C)(CO)n1cc(C(=O)c2cncc(NC(=O)Cc3ccc(Cl)cn3)c2)c2cnc(N)nc21 (library stock concentration (final ~1000-fold dilution): 10 mM)
RAW-Dual [1]; [4]
  IRF Lucia reporter activity: 0.552
RAW-Dual [1]; agonist: LPS (TLR4) 0.1 ug/mL
  IRF Lucia reporter activity: 1.09

## CC(C)Cn1c(=O)n(C)c(=O)c2nc[nH]c21 (library stock concentration (final ~1000-fold dilution): 10 mM)
RAW-Dual [1]; [4]
  IRF Lucia reporter activity: 0.896
RAW-Dual [1]; agonist: LPS (TLR4) 0.1 ug/mL
  IRF Lucia reporter activity: 0.997

## CC(C)Cn1c(=O)n(C)c(=O)c2nc[nH]c21
RAW-Dual [2]; [5]
  IRF Lucia reporter activity: 1.02

## COc1ccc2cc3[n+](cc2c1OC)CCc1cc2c(cc1-3)OCO2 (library stock concentration (final ~1000-fold dilution): 10 mM)
RAW-Dual [1]; [4]
  IRF Lucia reporter activity: 1.05 and 1.21
RAW-Dual [1]; agonist: LPS (TLR4) 0.1 ug/mL
  IRF Lucia reporter activity: 1.07 and 1.14

## CC1COC2Cn3cc(C(=O)NCc4ccc(F)cc4F)c(=O)c(O)c3C(=O)N12 (stereo not given) (library stock concentration (final ~1000-fold dilution): 10 mM)
RAW-Dual [1]; [4]
  IRF Lucia reporter activity: 0.909
RAW-Dual [1]; agonist: LPS (TLR4) 0.1 ug/mL
  IRF Lucia reporter activity: 0.781

## CC(C)(C)OC(=O)Nc1ccc(-c2cc(C(=O)NCCCCCCC(=O)NO)no2)cc1 (library stock concentration (final ~1000-fold dilution): 10 mM)
RAW-Dual [3]; [4]
  IRF Lucia reporter activity: 0.00937
RAW-Dual [3]; agonist: LPS (TLR4) 0.1 ug/mL
  IRF Lucia reporter activity: 0.711

## CCS(=O)(=O)N1CCN(c2ccc(Nc3ncc(C(N)=O)c(NC4CC4)n3)cc2)CC1.Cl (library stock concentration (final ~1000-fold dilution): 10 mM)
RAW-Dual [3]; [4]
  IRF Lucia reporter activity: 0.0176
RAW-Dual [3]; agonist: LPS (TLR4) 0.1 ug/mL
  IRF Lucia reporter activity: 0.0158

## Cc1nc(C)c(C)nc1C
RAW-Dual [2]; [5]
  IRF Lucia reporter activity: 0.921

## Cc1nc(C)c(C)nc1C (library stock concentration (final ~1000-fold dilution): 10 mM)
RAW-Dual [1]; [4]
  IRF Lucia reporter activity: 0.978
RAW-Dual [1]; agonist: LPS (TLR4) 0.1 ug/mL
  IRF Lucia reporter activity: 1.34

## Cc1cc([N+](=O)[O-])c(NS(=O)(=O)c2cccc(C(=O)O)c2)cc1-c1cccnc1 (library stock concentration (final ~1000-fold dilution): 10 mM)
RAW-Dual [1]; [4]
  IRF Lucia reporter activity: 0.929
RAW-Dual [1]; agonist: LPS (TLR4) 0.1 ug/mL
  IRF Lucia reporter activity: 1

## CC1(N)CCN(c2cnc(-c3cccc(Cl)c3Cl)c(N)n2)CC1.Cl (library stock concentration (final ~1000-fold dilution): 10 mM)
RAW-Dual [1]; [4]
  IRF Lucia reporter activity: 0.835
RAW-Dual [1]; agonist: LPS (TLR4) 0.1 ug/mL
  IRF Lucia reporter activity: 1.43

## CC(C)(C)NCC(O)COc1cccc2c1CC(O)C(O)C2 (stereo not given) (library stock concentration (final ~1000-fold dilution): 10 mM)
RAW-Dual [1]; [4]
  IRF Lucia reporter activity: 1.09
RAW-Dual [1]; agonist: LPS (TLR4) 0.1 ug/mL
  IRF Lucia reporter activity: 1.2

## CC(C)(C)NCC(O)COc1cccc2c1CC(O)C(O)C2 (stereo not given)
RAW-Dual [2]; [5]
  IRF Lucia reporter activity: 1.07

## COc1cc(-c2cc(-c3ccc(N4CCNCC4)cc3)cnc2C)cc(OC)c1OC (library stock concentration (final ~1000-fold dilution): 10 mM)
RAW-Dual [1]; [4]
  IRF Lucia reporter activity: 0.125
RAW-Dual [1]; agonist: LPS (TLR4) 0.1 ug/mL
  IRF Lucia reporter activity: 0.669

## Nc1ccccc1NC(=O)c1ccc(CNc2nccc(-c3cccnc3)n2)cc1
RAW-Dual [2]; [6]
  IRF Lucia reporter activity: 0.145

## Nc1ccccc1NC(=O)c1ccc(CNc2nccc(-c3cccnc3)n2)cc1 (library stock concentration (final ~1000-fold dilution): 10 mM)
RAW-Dual [3]; [4]
  IRF Lucia reporter activity: 0.0258
RAW-Dual [3]; agonist: LPS (TLR4) 0.1 ug/mL
  IRF Lucia reporter activity: 0.143

## Cc1ccc(S(=O)(=O)/C=C/C#N)cc1
RAW-Dual [2]; [6]
  IRF Lucia reporter activity: 0.507 ± 0.69

## Cc1ccc(S(=O)(=O)/C=C/C#N)cc1 (library stock concentration (final ~1000-fold dilution): 10 mM)
RAW-Dual [3]; [4]
  IRF Lucia reporter activity: 0.0131 and 0.0117
RAW-Dual [3]; agonist: LPS (TLR4) 0.1 ug/mL
  IRF Lucia reporter activity: 0.0174 and 0.0105

## Cc1cccn2c(=O)c(-c3nnn[nH]3)cnc12 (library stock concentration (final ~1000-fold dilution): 10 mM water)
RAW-Dual [1]; [4]
  IRF Lucia reporter activity: 1.1
RAW-Dual [1]; agonist: LPS (TLR4) 0.1 ug/mL
  IRF Lucia reporter activity: 0.916

## Cc1cccn2c(=O)c(-c3nnn[nH]3)cnc12
RAW-Dual [2]; library stock concentration (final ~1000-fold dilution): 10 mM water, cytotoxicity flag (confluency mask): not cytotoxic
  IRF Lucia reporter activity: 1.29

## CCOCCn1c(N2CCCN(C)CC2)nc2ccccc21
RAW-Dual [2]; [5]
  IRF Lucia reporter activity: 1.13

## CCOCCn1c(N2CCCN(C)CC2)nc2ccccc21 (library stock concentration (final ~1000-fold dilution): 10 mM)
RAW-Dual [1]; [4]
  IRF Lucia reporter activity: 1.05
RAW-Dual [1]; agonist: LPS (TLR4) 0.1 ug/mL
  IRF Lucia reporter activity: 0.888

## CCC(=O)OC1CC(=O)OC(C)C/C=C/C=C/C(O)C(C)CC(CC=O)C(OC2OC(C)C(OC3CC(C)(O)C(OC(=O)CC)C(C)O3)C(N(C)C)C2O)C1OC (stereo not given) (library stock concentration (final ~1000-fold dilution): 10 mM)
RAW-Dual [1]; [4]
  IRF Lucia reporter activity: 1.05
RAW-Dual [1]; agonist: LPS (TLR4) 0.1 ug/mL
  IRF Lucia reporter activity: 0.944

## CCC(=O)OC1CC(=O)OC(C)C/C=C/C=C/C(O)C(C)CC(CC=O)C(OC2OC(C)C(OC3CC(C)(O)C(OC(=O)CC)C(C)O3)C(N(C)C)C2O)C1OC (stereo not given)
RAW-Dual [2]; [5]
  IRF Lucia reporter activity: 1.09

## CCCC(=O)Nc1cccc(NC(=O)c2ccccc2Br)c1 (library stock concentration (final ~1000-fold dilution): 10 mM)
RAW-Dual [1]; [4]
  IRF Lucia reporter activity: 1.01
RAW-Dual [1]; agonist: LPS (TLR4) 0.1 ug/mL
  IRF Lucia reporter activity: 0.907

## CCCC(=O)Nc1cccc(NC(=O)c2ccccc2Br)c1
RAW-Dual [2]; [5]
  IRF Lucia reporter activity: 0.996

## O=C(O)c1ccc(O)c2ncccc12 (library stock concentration (final ~1000-fold dilution): 10 mM)
RAW-Dual [1]; [4]
  IRF Lucia reporter activity: 0.875
RAW-Dual [1]; agonist: LPS (TLR4) 0.1 ug/mL
  IRF Lucia reporter activity: 1.09

## O=C(O)c1ccc(O)c2ncccc12
RAW-Dual [2]; [5]
  IRF Lucia reporter activity: 1.04

## COc1cc2ncnc(Nc3ccc(O)c(Br)c3)c2cc1OC (library stock concentration (final ~1000-fold dilution): 10 mM)
RAW-Dual [1]; [4]
  IRF Lucia reporter activity: 0.128
RAW-Dual [1]; agonist: LPS (TLR4) 0.1 ug/mL
  IRF Lucia reporter activity: 0.342

## COc1cc2ncnc(Nc3ccc(O)c(Br)c3)c2cc1OC
RAW-Dual [2]; [5]
  IRF Lucia reporter activity: 0.438

## CNC(=O)C(Cc1ccccc1)NC(=O)C(CC(C)C)C(CSc1cccs1)C(=O)NO (stereo not given) (library stock concentration (final ~1000-fold dilution): 10 mM)
RAW-Dual [1]; [4]
  IRF Lucia reporter activity: 0.621
RAW-Dual [1]; agonist: LPS (TLR4) 0.1 ug/mL
  IRF Lucia reporter activity: 1.08

## CNC(=O)C(Cc1ccccc1)NC(=O)C(CC(C)C)C(CSc1cccs1)C(=O)NO (stereo not given)
RAW-Dual [2]; [5]
  IRF Lucia reporter activity: 1.04
